Test results taken from paper PMC12272249, “Engineering high-efficiency matriptase substrates using E. coli display for applications in prodrug activation” (Cell Reports Methods, 2025).

Target: T1, matriptase (Homo sapiens, UniProt Q9Y5Y6)
T1 construct: purchased R&D Systems (Bio-Techne) 3946-SEB
T1 sequence (Q9Y5Y6 615-855 limits assumed): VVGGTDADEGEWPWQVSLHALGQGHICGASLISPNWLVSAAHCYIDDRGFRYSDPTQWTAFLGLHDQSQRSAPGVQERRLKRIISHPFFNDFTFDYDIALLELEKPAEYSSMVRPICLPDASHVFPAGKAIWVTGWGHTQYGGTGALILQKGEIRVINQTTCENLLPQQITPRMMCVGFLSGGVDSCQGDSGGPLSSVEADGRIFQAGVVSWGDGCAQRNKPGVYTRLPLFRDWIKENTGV
Test: E. coli display cleavage reporter assay, flow cytometry, matriptase treatment
Conditions: E. coli-displayed substrate, 1 nM matriptase, 90 min, loss of cleavage reporter relative to untreated controls, two replicates
Procedure: A volume of the glycerol stock sufficient to encompass the library’s diversity at least 10x was inoculated into fresh LB media supplemented with carbenicillin (100 μg/mL). The cultures were grown overnight, diluted to an OD600 of 0.1 in fresh LB media, and induced with 0.6% arabinose once they reached an OD600 of 0.7. After overnight incubation, the induced cell cultures were harvested, washed twice with PBS supplemented with 1% Pluronic acid (PBS-P), and treated with matriptase (50–10 nM) for 30 min at 37°C. […] The sorting gate was placed to retain cells with expression reporter signal but reduced cleavage reporter signal. Sorted cells were grown in LB media with carbenicillin, aliquoted as glycerol stocks, and stored at −80°C. Single colonies from plated dilutions were picked for further analysis.
Negative values were set to zero.

| Substance | percentage of cleaved substrate |
| --- | --- |
| VPRGRR [MtpC5] | over 50% |
| GAKSRR [MtpB9] | over 50% |
| HYKGRK [MtpC9] | over 50% |
